# Measurements reported in paper PMC11166463.
# Chains of the proteins cited; added tags and fusions are not shown.
# UniProt P51532: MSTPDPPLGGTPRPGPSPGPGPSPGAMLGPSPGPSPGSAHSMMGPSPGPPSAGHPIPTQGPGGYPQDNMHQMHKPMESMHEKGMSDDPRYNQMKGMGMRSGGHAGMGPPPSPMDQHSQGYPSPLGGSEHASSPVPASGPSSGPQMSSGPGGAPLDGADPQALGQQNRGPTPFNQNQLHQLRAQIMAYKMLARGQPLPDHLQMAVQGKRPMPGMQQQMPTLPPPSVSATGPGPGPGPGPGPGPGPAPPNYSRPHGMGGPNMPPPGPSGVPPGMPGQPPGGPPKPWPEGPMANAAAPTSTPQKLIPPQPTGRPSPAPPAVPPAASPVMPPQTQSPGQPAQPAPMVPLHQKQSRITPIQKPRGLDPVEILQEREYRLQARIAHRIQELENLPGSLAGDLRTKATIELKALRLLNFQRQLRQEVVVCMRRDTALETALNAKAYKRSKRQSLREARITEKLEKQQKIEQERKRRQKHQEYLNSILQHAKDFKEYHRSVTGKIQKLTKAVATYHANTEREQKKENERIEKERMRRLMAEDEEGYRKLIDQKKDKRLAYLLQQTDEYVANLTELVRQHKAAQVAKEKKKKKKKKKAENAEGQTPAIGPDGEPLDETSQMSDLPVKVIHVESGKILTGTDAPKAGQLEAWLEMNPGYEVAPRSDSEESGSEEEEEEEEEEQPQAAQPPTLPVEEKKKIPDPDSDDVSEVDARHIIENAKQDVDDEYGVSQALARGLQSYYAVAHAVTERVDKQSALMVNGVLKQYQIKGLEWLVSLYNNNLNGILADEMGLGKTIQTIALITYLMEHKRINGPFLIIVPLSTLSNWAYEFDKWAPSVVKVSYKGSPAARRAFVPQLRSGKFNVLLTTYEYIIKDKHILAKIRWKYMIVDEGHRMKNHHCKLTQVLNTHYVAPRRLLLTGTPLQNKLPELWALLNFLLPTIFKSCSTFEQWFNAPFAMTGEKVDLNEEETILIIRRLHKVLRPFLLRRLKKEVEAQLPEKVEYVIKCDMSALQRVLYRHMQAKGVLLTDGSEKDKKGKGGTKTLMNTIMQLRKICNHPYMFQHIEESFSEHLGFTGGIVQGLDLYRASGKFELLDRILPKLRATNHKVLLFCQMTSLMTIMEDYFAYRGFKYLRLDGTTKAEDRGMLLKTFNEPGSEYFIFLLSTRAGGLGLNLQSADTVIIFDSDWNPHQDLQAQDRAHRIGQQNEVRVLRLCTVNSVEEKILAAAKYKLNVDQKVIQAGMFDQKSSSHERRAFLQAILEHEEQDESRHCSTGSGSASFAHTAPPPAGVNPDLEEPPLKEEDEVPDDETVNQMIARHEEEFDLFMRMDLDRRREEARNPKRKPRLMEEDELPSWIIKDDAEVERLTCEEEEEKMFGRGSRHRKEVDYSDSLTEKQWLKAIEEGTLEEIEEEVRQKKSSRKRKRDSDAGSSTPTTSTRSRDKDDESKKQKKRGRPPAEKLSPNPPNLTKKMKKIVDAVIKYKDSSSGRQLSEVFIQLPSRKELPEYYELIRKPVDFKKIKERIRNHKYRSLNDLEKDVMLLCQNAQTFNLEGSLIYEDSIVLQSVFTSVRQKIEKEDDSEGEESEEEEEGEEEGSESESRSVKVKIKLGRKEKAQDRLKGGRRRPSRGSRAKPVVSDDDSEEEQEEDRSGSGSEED
# UniProt P51531: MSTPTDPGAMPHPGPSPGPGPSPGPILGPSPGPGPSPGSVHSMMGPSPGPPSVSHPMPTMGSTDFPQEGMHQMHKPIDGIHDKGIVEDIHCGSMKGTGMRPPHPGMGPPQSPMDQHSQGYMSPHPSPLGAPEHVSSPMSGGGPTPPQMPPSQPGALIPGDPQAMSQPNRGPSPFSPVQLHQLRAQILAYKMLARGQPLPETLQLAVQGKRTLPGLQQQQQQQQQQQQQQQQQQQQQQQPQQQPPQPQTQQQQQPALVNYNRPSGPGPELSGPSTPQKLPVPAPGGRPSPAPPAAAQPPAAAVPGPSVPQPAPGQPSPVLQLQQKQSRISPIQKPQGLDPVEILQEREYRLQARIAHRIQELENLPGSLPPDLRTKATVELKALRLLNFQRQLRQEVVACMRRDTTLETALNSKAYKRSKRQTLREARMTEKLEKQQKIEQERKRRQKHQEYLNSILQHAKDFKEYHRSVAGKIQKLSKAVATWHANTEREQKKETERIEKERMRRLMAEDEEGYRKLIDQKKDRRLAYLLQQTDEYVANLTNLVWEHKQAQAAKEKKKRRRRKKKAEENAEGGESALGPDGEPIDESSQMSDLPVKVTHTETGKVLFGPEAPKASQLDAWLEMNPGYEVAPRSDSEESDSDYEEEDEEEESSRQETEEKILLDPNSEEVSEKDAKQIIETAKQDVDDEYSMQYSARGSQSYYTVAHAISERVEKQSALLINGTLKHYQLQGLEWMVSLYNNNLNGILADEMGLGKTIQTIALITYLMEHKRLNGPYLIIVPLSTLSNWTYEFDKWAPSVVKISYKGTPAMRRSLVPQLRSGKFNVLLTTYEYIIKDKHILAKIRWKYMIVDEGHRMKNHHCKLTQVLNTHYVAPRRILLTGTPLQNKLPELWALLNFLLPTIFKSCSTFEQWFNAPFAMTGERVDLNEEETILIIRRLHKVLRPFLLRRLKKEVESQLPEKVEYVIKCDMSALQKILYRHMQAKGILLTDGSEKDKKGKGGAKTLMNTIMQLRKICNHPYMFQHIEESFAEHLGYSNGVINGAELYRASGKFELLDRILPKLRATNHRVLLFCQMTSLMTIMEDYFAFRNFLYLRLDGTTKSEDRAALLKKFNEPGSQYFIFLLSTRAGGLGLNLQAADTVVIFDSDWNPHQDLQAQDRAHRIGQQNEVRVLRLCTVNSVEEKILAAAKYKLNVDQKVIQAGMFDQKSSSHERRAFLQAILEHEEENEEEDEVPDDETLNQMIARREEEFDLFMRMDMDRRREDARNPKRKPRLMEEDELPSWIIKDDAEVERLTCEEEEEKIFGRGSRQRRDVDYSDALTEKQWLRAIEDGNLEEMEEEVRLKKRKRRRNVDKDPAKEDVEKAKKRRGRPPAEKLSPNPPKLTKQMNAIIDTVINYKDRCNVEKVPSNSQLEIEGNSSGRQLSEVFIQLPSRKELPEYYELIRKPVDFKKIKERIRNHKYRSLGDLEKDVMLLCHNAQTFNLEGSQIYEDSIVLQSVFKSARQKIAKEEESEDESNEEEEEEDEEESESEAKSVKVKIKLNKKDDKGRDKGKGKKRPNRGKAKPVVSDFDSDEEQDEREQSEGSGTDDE
# UniProt Q8N4N8: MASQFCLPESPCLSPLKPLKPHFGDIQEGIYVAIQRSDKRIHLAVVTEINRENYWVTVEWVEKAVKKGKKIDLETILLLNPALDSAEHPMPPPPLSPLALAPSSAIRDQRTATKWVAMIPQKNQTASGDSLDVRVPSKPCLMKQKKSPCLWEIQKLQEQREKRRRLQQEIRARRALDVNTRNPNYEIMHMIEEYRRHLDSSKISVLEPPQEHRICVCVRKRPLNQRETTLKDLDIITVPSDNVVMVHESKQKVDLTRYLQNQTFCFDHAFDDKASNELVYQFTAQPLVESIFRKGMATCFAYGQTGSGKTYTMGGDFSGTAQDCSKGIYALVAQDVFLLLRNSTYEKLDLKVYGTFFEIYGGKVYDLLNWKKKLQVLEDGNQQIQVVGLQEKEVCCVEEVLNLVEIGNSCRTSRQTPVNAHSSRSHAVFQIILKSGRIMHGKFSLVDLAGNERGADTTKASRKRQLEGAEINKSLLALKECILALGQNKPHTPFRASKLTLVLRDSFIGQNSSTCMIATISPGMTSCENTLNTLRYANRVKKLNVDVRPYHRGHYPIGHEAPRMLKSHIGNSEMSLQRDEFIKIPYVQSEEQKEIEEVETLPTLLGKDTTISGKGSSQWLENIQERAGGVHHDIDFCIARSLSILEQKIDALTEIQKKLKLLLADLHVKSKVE
# UniProt Q96GD4: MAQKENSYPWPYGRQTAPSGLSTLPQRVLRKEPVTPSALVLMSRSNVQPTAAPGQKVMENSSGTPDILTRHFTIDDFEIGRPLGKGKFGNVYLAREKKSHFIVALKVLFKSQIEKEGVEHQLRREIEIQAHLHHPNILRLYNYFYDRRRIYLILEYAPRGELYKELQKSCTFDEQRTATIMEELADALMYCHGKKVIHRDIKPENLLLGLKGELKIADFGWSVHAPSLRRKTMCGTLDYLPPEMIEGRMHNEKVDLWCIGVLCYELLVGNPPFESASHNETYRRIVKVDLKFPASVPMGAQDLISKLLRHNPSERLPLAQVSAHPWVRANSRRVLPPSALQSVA
# UniProt P53350: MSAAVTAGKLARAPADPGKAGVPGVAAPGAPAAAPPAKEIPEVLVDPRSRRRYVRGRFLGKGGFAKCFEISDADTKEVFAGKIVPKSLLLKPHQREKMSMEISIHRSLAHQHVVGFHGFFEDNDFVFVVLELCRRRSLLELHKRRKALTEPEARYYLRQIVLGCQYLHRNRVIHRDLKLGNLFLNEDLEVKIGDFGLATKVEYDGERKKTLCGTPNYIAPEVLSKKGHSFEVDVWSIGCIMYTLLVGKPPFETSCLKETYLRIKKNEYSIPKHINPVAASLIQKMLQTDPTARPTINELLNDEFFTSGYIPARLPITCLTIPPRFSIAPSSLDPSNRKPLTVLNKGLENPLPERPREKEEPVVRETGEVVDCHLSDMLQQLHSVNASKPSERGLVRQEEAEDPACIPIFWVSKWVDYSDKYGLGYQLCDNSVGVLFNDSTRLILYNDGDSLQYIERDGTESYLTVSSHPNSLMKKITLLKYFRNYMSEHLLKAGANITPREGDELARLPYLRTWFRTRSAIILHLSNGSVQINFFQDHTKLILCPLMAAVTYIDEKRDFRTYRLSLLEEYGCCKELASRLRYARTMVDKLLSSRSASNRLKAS
# UniProt Q8TAQ2: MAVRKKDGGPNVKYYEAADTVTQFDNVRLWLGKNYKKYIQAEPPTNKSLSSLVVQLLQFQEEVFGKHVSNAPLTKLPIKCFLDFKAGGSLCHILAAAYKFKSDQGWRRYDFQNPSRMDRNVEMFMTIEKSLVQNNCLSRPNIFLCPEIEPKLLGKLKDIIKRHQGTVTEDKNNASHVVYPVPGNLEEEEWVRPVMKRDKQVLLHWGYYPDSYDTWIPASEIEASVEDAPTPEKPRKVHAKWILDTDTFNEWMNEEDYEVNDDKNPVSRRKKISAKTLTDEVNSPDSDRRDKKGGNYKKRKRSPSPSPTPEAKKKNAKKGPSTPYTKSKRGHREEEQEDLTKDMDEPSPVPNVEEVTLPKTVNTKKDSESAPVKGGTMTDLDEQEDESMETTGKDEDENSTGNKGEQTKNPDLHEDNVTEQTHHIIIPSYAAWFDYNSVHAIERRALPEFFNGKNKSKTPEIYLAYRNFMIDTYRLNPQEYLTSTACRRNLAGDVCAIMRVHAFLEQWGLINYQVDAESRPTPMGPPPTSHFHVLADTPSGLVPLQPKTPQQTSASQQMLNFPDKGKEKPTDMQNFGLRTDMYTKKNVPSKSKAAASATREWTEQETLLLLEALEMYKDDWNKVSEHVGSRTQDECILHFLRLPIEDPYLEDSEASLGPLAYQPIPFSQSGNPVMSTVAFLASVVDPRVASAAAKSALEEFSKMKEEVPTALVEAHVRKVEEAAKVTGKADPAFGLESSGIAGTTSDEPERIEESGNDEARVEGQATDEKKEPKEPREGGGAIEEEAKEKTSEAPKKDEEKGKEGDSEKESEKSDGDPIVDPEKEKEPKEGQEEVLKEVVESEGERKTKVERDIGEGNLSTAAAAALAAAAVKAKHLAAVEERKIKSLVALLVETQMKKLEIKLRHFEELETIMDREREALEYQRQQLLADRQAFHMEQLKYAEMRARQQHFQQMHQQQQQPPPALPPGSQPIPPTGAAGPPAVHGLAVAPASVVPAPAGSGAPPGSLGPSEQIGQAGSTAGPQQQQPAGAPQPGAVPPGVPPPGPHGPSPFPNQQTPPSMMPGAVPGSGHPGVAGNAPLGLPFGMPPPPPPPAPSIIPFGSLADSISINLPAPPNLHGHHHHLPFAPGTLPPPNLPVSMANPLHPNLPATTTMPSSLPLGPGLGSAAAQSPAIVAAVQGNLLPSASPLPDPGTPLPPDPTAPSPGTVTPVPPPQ
# Results are given in words; binding and its absence hold for the method and conditions named. In cells and extracts the contact can be indirect. Some binding calls cover weakened binding; strength is not graded here. For some assays here: Where a sequence is shown, tags or fusion partners need not be part of it.
# Assays:
# [1] = molecular target: GST–DPF3b (human) (UniProt Q92784); test: pull-down; GST recombinant proteins immobilised on glutathione-conjugated sepharose beads, incubated with lysates of mock or transfected U2OS cells at 4°C for 2 h, western blot; only the target purified
# [2] = molecular target: T1, GST–DPF3a (human) (UniProt Q92784); test: as above
# T1 sequence: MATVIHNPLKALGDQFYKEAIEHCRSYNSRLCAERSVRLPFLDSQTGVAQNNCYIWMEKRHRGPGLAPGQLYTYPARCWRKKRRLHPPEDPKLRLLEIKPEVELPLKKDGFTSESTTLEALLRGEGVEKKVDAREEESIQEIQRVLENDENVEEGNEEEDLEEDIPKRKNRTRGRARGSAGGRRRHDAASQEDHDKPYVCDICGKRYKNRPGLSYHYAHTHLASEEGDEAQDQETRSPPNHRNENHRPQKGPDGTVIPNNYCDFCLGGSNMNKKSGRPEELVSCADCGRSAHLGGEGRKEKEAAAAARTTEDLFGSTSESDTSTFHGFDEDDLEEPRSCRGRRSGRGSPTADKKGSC
# [3] = molecular target: Brg1 (SMARCA4), endogenous in U2OS cells (human (endogenous in U2OS)) (UniProt P51532); test: co-IP; endogenous proteins from U2OS lysate (20 mM Tris-HCl pH 7.5, 150 mM NaCl, 5 mM EDTA, 5 mM EGTA, 1% Triton X-100), antibody overnight at 4°C, protein A/G agarose beads, four washes, western blot
# [4] = molecular target: Brm (SMARCA2), endogenous in U2OS cells (human (endogenous in U2OS)) (UniProt P51531); test: as above
binding [1],binding [2],binding [3],binding [4],Substance
no binding,no binding,,,Myc–KIF2B (from UniProt Q8N4N8 1-673)
binds,binds,,,HA–Aurora B (from UniProt Q96GD4 1-344)
binds,binds,,,FLAG–PLK1 (from UniProt P53350 1-603)
,,binds,binds,"BAF170 (SMARCC2), endogenous in U2OS cells (from UniProt Q8TAQ2 1-1214)"
